71 compounds from the supplement of paper PMC4723716 can be followed below.

± gives the uncertainty stated by the source. In all, about 9,900 compounds were measured (“viability index relative to DMSO control”: median about 1, lowest 2% from about 0.85 on). The list shows a part of the results.

The subject of the assay is Plasmodium falciparum NF54 stage V gametocytes. Kind of assay: viability index relative to DMSO control (fraction); higher = less gametocyte killing. As to conditions: 2.5 µM, library set: Broad Institute DOS, incubation time: 72 h. Summed up:
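P. falciparum NF54 stage V gametocytes in serum-free screening medium (0.75% gametocytemia, 1.25% hematocrit, 10 µl) were incubated with compound at 2.5 µM in 1,536-well plates for 72 hr at 37°C under low oxygen. Then 3 µl of 2.5 µM MitoTracker Red CMXRos plus 0.13% saponin was added for one to two hours. One field per well was imaged, 20–70 µm2 red particles were counted, and the viability index was the count divided by the plate mean of DMSO wells.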
The compound `Cc1cc(C(=O)Nc2ccc3c(c2)C(=O)N(C)[C@@H]2CC[C@@H](CC(=O)NCc4ccc(-c5ccccc5)cc4)O[C@H]2CO3)no1` yielded a viability index of 1.04 ± 0.081.

`CCCC(=O)N1C[C@@]2(C1)CN([C@@H](CO)c1[nH]c3cc(OC)ccc3c21)S(=O)(=O)c1ccc(C)cc1` returned a viability index of 0.9841 ± 0.0028.

As to `CC(=O)N1CC2(C1)[C@@H](c1ccc(-c3ccc(F)cc3)cc1)[C@@H](CO)N2CC1CC1`, the viability index came to 1.08 ± 0.023.

In the case of `COc1ccc2c3c([C@H](CO)N(Cc4ccc(F)cc4)C[C@]33CCN(C)CC3)n(C)c2c1`, the viability index was 0.932 ± 0.099.

Take `COc1ccccc1-c1ccc2c(c1)O[C@H](CN(C)CC1CCOCC1)[C@H](C)CN([C@H](C)CO)S2(=O)=O`: the viability index worked out at 1.04 ± 0.028.

With `CCCNC(=O)N1[C@H](C#N)[C@H](c2ccc(C#Cc3cccc(F)c3)cc2)[C@H]1CO`, the viability index amounted to 1.0265 ± 0.00037.

`COc1ccccc1-c1ccc([C@@H]2[C@@H](CO)N(CC3CC3)C23CN(S(C)(=O)=O)C3)cc1` yielded a viability index of 1.102 ± 0.0048.

`Cc1ccccc1-c1cnc2c(c1)C(=O)N([C@H](C)CO)C[C@H](C)[C@H](CN(C)Cc1ccccc1F)O2` had a viability index of 1.06 ± 0.12.

For the compound `COc1ccccc1NC(=O)N[C@H]1CC[C@@H](CCNS(=O)(=O)c2ccc(Cl)cc2)O[C@H]1CO`, the viability index turned out to be 0.97 ± 0.014.

For `C[C@@H]1CN([C@@H](C)CO)C(=O)c2c(c3ccccc3n2C)-c2ccccc2CO[C@@H]1CN(C)C`, the viability index turned out to be 1.008 ± 0.0079.

`C[C@H]1CN([C@@H](C)CO)C(=O)c2cc(NC(=O)Cn3cnnn3)ccc2O[C@@H]1CN(C)C(=O)Nc1ccc2c(c1)OCO2` yielded a viability index of 1.02 ± 0.085.

In turn, `O=C(Nc1ccc(Cl)cc1)N1C[C@@H]2[C@H](c3ccccc31)[C@H](CO)N2CC1CCCCC1` yielded a viability index of 1.03 ± 0.14.

`O=C(Nc1ccccc1F)N[C@H]1CC[C@H](CCNC(=O)C2CC2)O[C@H]1CO` showed a viability index of 1.13 ± 0.044.

In turn, `CCCC(O)C#Cc1cnc2c(c1)C(=O)N([C@H](C)CO)C[C@H](C)[C@H](CN(C)S(=O)(=O)c1ccc(C#N)cc1)O2` (stereo partly specified) displayed a viability index of 1.06 ± 0.04.

Turning to `CO[C@@H]1CN(C)C(=O)c2cc(NC(=O)Nc3ccccc3Cl)ccc2OC[C@@H](C)N(S(=O)(=O)CC(F)(F)F)C[C@H]1C`, the viability index worked out at 1.06 ± 0.066.

For the compound `O=C(C[C@H]1CC[C@H]2[C@@H](COC[C@@H](O)CN2CCC(F)(F)F)O1)NCC1CC1`, the viability index came out at 1.13 ± 0.049.

Compound `COCC(=O)N1CC[C@@]2(CC1)CN(Cc1ccccc1Cl)[C@H](CO)c1[nH]c3cc(OC)ccc3c21` showed a viability index of 1.023 ± 0.0089.

In turn, `COc1ccc([C@H]2C/C=C\C[C@H](c3ccc4c(c3)OCO4)NC(=O)CCC(=O)N2)c(OC)c1` showed a viability index of 1.041 ± 0.01.

As to `COc1ccc2c(c1)n(C)c1[C@@H](CO)N(C[C@]3(CCN(C)CC3)c21)C(=O)c1ccc(F)cc1`, the viability index was determined as 1.05 ± 0.022.

`C[C@H](CO)N1C[C@H](C)[C@H](CN(C)C(=O)Nc2ccc(C(F)(F)F)cc2)Oc2ccc(NC(=O)C3CCCCC3)cc2C1=O`: the viability index was 0.971 ± 0.023.

In turn, `CC(C)NC(=O)N1[C@H](CO)[C@@H]2c3ccccc3N(C)C[C@@H]21` showed a viability index of 1.03 ± 0.014.

Compound `O=C(C[C@H]1CC[C@H]2NC[C@@H](O)COC[C@@H]2O1)Nc1nccs1` came in with a viability index of 0.991 ± 0.05.

Consider `C[C@@H]1CN([C@H](C)CO)S(=O)(=O)c2ccc(C#CCC3CCCC3)cc2O[C@@H]1CN(C)C(=O)c1cnccn1`, for which the viability index worked out at 0.9131 ± 0.0012.

In turn, `C[C@H](NC(=O)[C@H]1[C@H](CO)[C@H]2Cn3c(cccc3=O)[C@@H]1N2C(=O)C1CCC1)c1ccccc1` returned a viability index of 1.07 ± 0.085.

In turn, `CCN1CC(=O)N2[C@H](CO)[C@@H](c3ccc(Br)cc3)[C@H]2C1` returned a viability index of 0.949 ± 0.032.

As to `CCC(=O)N1[C@H](CO)[C@@H](c2ccccc2)C12CN(C(=O)Nc1ccccc1F)C2`, the viability index is 1.11 ± 0.13.

`COc1ccc2c3c([nH]c2c1)[C@H](CO)NC[C@]31CCN(CC1)C(=O)Cc1cccnc1`: the viability index was determined as 1.02 ± 0.03.

In turn, `COc1ccc2c3c([nH]c2c1)[C@H](CO)N(C[C@]31CN(C1)C(=O)CC1CC1)C(=O)c1cccc(F)c1` gave a viability index of 0.978 ± 0.072.

Take `Cc1noc(C)c1NC(=O)Nc1ccc2c(c1)C(=O)N(C)[C@H]1CC[C@@H](CC(=O)N[C@@H]3CCN(Cc4ccccc4)C3)O[C@H]1CO2`: the viability index was 0.927 ± 0.11.

Consider `C/C=C/c1ccc([C@H]2[C@@H](CO)N3C(=O)CN(C(=O)Nc4ccc(F)cc4)C[C@H]23)cc1`, for which the viability index is 1.08 ± 0.067.

`COc1ccccc1NC(=O)N1[C@@H]2CNC[C@H]1[C@H]2c1ccc(-c2ccccc2C)cc1` came in with a viability index of 1.06 ± 0.014.

`CCC(=O)NC[C@H]1N[C@H](CO)[C@@H]1c1ccc(-c2cccnc2)cc1` returned a viability index of 1.06 ± 0.034.

Turning to `COc1ccc(S(=O)(=O)N(C)C[C@@H]2Oc3ccc(NC(=O)Cc4cn(C)c5ccccc45)cc3C(=O)N([C@H](C)CO)C[C@H]2C)cc1`, the viability index was 1.02 ± 0.062.

Regarding `O=C(C1CCOCC1)N1CC2(C1)[C@@H](c1ccccc1)[C@H](CO)N2Cc1ccccc1F`, the viability index amounted to 1.07 ± 0.025.

Take `Cc1noc(C)c1NC(=O)N(C)C[C@H]1Oc2ccc(NC(=O)Cc3cn(C)c4ccccc34)cc2CC(=O)N([C@H](C)CO)C[C@@H]1C`: the viability index was found to be 1.04 ± 0.045.

The compound `C/C=C/c1ccccc1[C@@H]1[C@@H](C#N)N(C(=O)CN2CCOCC2)[C@H]1CO` displayed a viability index of 1.14 ± 0.019.

As to `CO[C@H](C(=O)N(C)C[C@@H]1OCc2ccccc2-c2ccccc2C(=O)N([C@@H](C)CO)C[C@H]1C)c1ccccc1`, the viability index turned out to be 0.928 ± 0.063.

Take `O=C(C[C@@H]1C[C@H]2c3cc(NC(=O)CC4CC4)ccc3O[C@H]2[C@H](CO)O1)NCC1CC1`: the viability index stood at 1.05 ± 0.049.

`CC(C)C#Cc1ccc([C@H]2[C@H](CO)N3C(=O)CN(C(=O)Cc4ccccc4)C[C@@H]23)cc1`: the viability index worked out at 1.08 ± 0.08.

`CCC(=O)N1CC2(C1)[C@H](c1ccc(-c3ccc(F)cc3)cc1)[C@@H](CO)N2C(C)=O`: the viability index was found to be 1.02 ± 0.016.

Turning to `COc1ccc2c3c([C@@H](CO)NC[C@]33CN(C3)C(=O)c3cccc(F)c3)n(C)c2c1`, the viability index was found to be 1.01 ± 0.012.

`O=C(CC1CC1)N1[C@H](CO)[C@@H]2c3ccccc3N(S(=O)(=O)c3ccccc3F)C[C@@H]21`: the viability index came to 0.995 ± 0.11.

Compound `O=C(Nc1ccc(F)cc1)N1[C@@H]2CNC[C@H]1[C@@H]2c1ccc(-c2cccnc2)cc1` yielded a viability index of 1.12 ± 0.092.

`CCCN1C[C@@H](C)[C@H](OC)CN(C)C(=O)c2ccc(NS(=O)(=O)c3cn(C)cn3)cc2OC[C@@H]1C`: the viability index came to 1.07 ± 0.023.

In the case of `CO[C@H]1CN(C)C(=O)c2cc(NC(=O)C3CC3)ccc2OC[C@@H](C)N(Cc2cc(F)ccc2F)C[C@@H]1C`, the viability index stood at 1.03 ± 0.048.

Regarding `CO[C@H]1CN(C)C(=O)c2ccc(NC(=O)c3cc(C)on3)cc2OC[C@H](C)NC[C@@H]1C`, the viability index is 0.863 ± 0.24.

The compound `COc1ccc2c3c([C@@H](CO)N(Cc4cccc(Cl)c4)C[C@]33CCN(CC3)C(=O)C3CC3)n(C)c2c1` had a viability index of 0.945 ± 0.045.

`COCC(=O)Nc1ccc2c(c1)C(=O)N(C)C[C@H](OC)[C@H](C)CN(CCc1ccccc1)[C@H](C)CO2` returned a viability index of 0.8876 ± 0.0034.

As to `O=C(Cc1ccncc1)NCC[C@@H]1CC[C@@H](NS(=O)(=O)c2ccccc2Cl)[C@H](CO)O1`, the viability index came to 1.16 ± 0.088.

Consider `CC(C)(O)C#Cc1ccc([C@@H]2[C@H]3CN(S(C)(=O)=O)CCCCN3[C@H]2CO)cc1`, for which the viability index was 1.01 ± 0.052.

As to `COc1ccc(C(=O)Nc2ccc3c(c2)C(=O)N(C)[C@@H]2CC[C@@H](CC(=O)NCC4CC4)O[C@@H]2CO3)cc1`, the viability index stood at 1.03 ± 0.11.

`Cc1ccc(-c2ccccc2[C@H]2[C@@H](CO)N(S(C)(=O)=O)[C@H]2C#N)cc1` registered a viability index of 1.13 ± 0.088.

Consider `OC[C@H]1Nc2ccc(C#Cc3ccc(F)cc3)cc2[C@@H]2[C@H]1CCN2Cc1ccc2c(c1)OCO2`, for which the viability index came out at 1.06 ± 0.019.

Compound `COCC(=O)Nc1ccc2c(c1)C(=O)N(C)[C@@H]1CC[C@@H](CC(=O)NCCCN(C)C)O[C@@H]1CO2` displayed a viability index of 0.98 ± 0.039.

The compound `COc1ccc(S(=O)(=O)N(C)C[C@@H]2Oc3c(cccc3N(C)C)C(=O)N([C@H](C)CO)C[C@@H]2C)cc1` gave a viability index of 1.01 ± 0.049.

With `CC(C)CC#Cc1ccc([C@H]2[C@H]3CN(C(=O)Nc4cc(F)ccc4F)CC(=O)N3[C@H]2CO)cc1`, the viability index amounted to 1.09 ± 0.032.

`CC(C)NC(=O)N1CC[C@@H]2[C@@H](CO)N(C)c3ccc(-c4ccc(F)cc4)cc3[C@@H]21` had a viability index of 1.06 ± 0.021.

In the case of `CN1C(=O)c2cc(NC(=O)c3cnccn3)ccc2OC[C@@H]2O[C@H](CC(=O)N[C@@H]3CCN(Cc4ccccc4)C3)CC[C@H]21`, the viability index turned out to be 1.05 ± 0.031.

As to `COc1cccc(-c2ccc3n(c2=O)C[C@H]2[C@H](CO)[C@@H](C(=O)N(C)C)[C@@H]3N2C(=O)c2ccccn2)c1`, the viability index turned out to be 1.05 ± 0.052.

The compound `COc1ccccc1CNC(=O)C[C@@H]1C=C[C@@H](NC(=O)CC2CC2)[C@@H](CO)O1` displayed a viability index of 0.976 ± 0.08.

Compound `COCC#Cc1ccc([C@@H]2[C@@H](CO)N3CCCCN(C(=O)NC4CCCC4)C[C@H]23)cc1` registered a viability index of 1.05 ± 0.029.

Take `C[C@@H]1CN([C@H](C)CO)C(=O)CCCn2cc(nn2)CO[C@@H]1CN(C)C(=O)Nc1cccc2ccccc12`: the viability index stood at 1.038 ± 0.01.

Turning to `CO[C@H](CN(C)S(=O)(=O)c1cn(C)cn1)[C@H](C)CN(C(=O)Nc1ccc(C(F)(F)F)cc1)[C@H](C)CO`, the viability index was 0.992 ± 0.096.

`C[C@H](CO)N1C[C@H](C)[C@H](CN(C)C(=O)Nc2ccc3c(c2)OCCO3)OCc2cnnn2CCCC1=O` showed a viability index of 1.03 ± 0.013.

The compound `COc1ccc(S(=O)(=O)N(C)C[C@H]2Oc3c(NC(=O)c4nc5ccccc5s4)cccc3C(=O)N([C@H](C)CO)C[C@@H]2C)cc1` gave a viability index of 0.996 ± 0.013.

As to `COCCNC(=O)C[C@@H]1CC[C@H]2[C@@H](COC[C@H](O)CN2C(=O)c2cc(Cl)cc(Cl)c2)O1`, the viability index was 1.02 ± 0.015.

`CN1C(=O)c2cc(NC(=O)Cc3cccs3)ccc2OC[C@@H]2O[C@@H](CC(=O)NCCCN3CCOCC3)CC[C@@H]21` returned a viability index of 1.09 ± 0.068.

Consider `C[C@@H]1CN([C@H](C)CO)C(=O)CCCn2cc(nn2)CO[C@H]1CN(C)C(=O)Nc1cccc2ccccc12`, for which the viability index was 0.99 ± 0.023.

Compound `C[C@@H]1CCCCO[C@H](CN(C)C(=O)Nc2ccccc2)[C@@H](C)CN([C@H](C)CO)C(=O)c2cc(NC(=O)Nc3ccccc3)ccc2O1` had a viability index of 1.1 ± 0.14.

In the case of `N#C[C@H]1[C@@H](c2ccccc2-c2ccccc2F)[C@@H](CO)N1C(=O)c1cccc(F)c1`, the viability index came to 1.16 ± 0.25.

Compound `C[C@H](CO)N1C[C@H](C)[C@H](CN(C)Cc2ccc(C(F)(F)F)cc2)Oc2c(NC(=O)NC3CCCCC3)cccc2C1=O` returned a viability index of 0.936 ± 0.029.
